Assay results reported in the supplement of paper PMC7238544.
Structures can show the parent of a compound that is named as a salt. ± gives the standard deviation of the averaged measurements. This is one part of the list.
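Note: compounds added 30 min before Lipofectamine 3000 lipoplex transfection, triplicate means relative to DMSO vehicle wells on the same plate, luciferase RLU normalized to BCA total protein.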

The molecules below were run on hAMSC donor 2 (assay: transfection efficiency (EGFP+ cells / Hoechst count) fold change vs vehicle control (ratio); hAMSC are human adipose-derived mesenchymal stem cells given an EGFP-luciferase plasmid by lipofection; higher = enhanced transfection). Details: priming compound concentration 100 µM.
With CCOC(=O)c1ccc(OC(=O)CCCCCNC(=N)N)cc1 [Gabexate mesilate] the transfection efficiency was 0.555 ± 0.14.
With CNCCC=C1c2ccccc2CCc2ccccc21 [Nortriptyline hydrochloride] the transfection efficiency was 0.0962 ± 0.1.
O=C(O[C@@H]1Cc2c(O)cc(O)cc2O[C@@H]1c1cc(O)c(O)c(O)c1)c1cc(O)c(O)c(O)c1 [Epigallocatechin gallate] showed a transfection efficiency of 0.0238 ± 0.014.
Work on CC(C)Oc1ccc2c(=O)c(-c3ccccc3)coc2c1 [Ipriflavone] yielded a transfection efficiency of 1.77 ± 0.13.
Work on CC(=O)Oc1ccccc1C(=O)Nc1ncc([N+](=O)[O-])s1 [Nitazoxanide] yielded a transfection efficiency of 0.374 ± 0.05.
In the case of CCN1CCN(C(=O)N[C@@H](C(=O)N[C@@H]2C(=O)N3[C@@H]2SC(C)(C)[C@@H]3C(=O)O)c2ccccc2)C(=O)C1=O [Piperacillin sodium], the transfection efficiency is reported as 0.778 ± 0.16.
CC=CC(=O)N(CC)c1ccccc1C [Crotamiton] was tested, and the transfection efficiency was 1.06 ± 0.17.
In the case of Nc1nc(Cl)nc2c1ncn2[C@H]1C[C@H](O)[C@@H](CO)O1 [Cladribine], the transfection efficiency is reported as 0.901 ± 0.28.
Molecule CCOC(=O)[C@H](CCc1ccccc1)N[C@@H](C)C(=O)N1Cc2ccccc2C[C@H]1C(=O)O [Quinapril hydrochloride] has a transfection efficiency of 1.14 ± 0.25.
With C[N+]1(C)CCC(OC(=O)C(O)(c2ccccc2)C2CCCC2)C1 (stereo unspecified) [Glycopyrronium bromide] the transfection efficiency was 1.49 ± 0.23.
CSc1ccc2c(c1)N(CCC1CCCCN1C)c1ccccc1S2 (stereo unspecified) [Thioridazine hydrochloride] gave a transfection efficiency of 0.0842 ± 0.076.
Work on CC(C)NCC(O)COc1cccc2[nH]ccc12 (stereo unspecified) [Pindolol] yielded a transfection efficiency of 1.04 ± 0.34.
In the case of CC(C)n1c(/C=C/C(O)CC(O)CC(=O)O)c(-c2ccc(F)cc2)c2ccccc21 (stereo unspecified) [Fluvastatin], the transfection efficiency is reported as 1.14 ± 0.16.
CCOC(=O)c1ncn2c1CN(C)C(=O)c1cc(F)ccc1-2 [Flumazenil] was tested, and the transfection efficiency was 1.4 ± 0.24.
Work on CC(C)(C)NC(=O)[C@@H]1C[C@@H]2CCCC[C@@H]2CN1C[C@@H](O)[C@H](Cc1ccccc1)NC(=O)[C@H](CC(N)=O)NC(=O)c1ccc2ccccc2n1 [Saquinavir mesylate] yielded a transfection efficiency of 0.345 ± 0.39.
CC(C)(C)NC(=O)[C@@H]1CN(Cc2cccnc2)CCN1C[C@@H](O)C[C@@H](Cc1ccccc1)C(=O)N[C@H]1c2ccccc2C[C@H]1O [Indinavir sulfate] gave a transfection efficiency of 1.16 ± 0.14.
For COCCCOc1ccnc(C[S+]([O-])c2nc3ccccc3[nH]2)c1C (stereo unspecified) [Rabeprazole], the transfection efficiency was 0.646 ± 0.12.
For CN(C)CCOC(c1ccccc1)c1ccccc1 [Diphenhydramine hydrochloride], the transfection efficiency was 0.724 ± 0.078.
Molecule Cc1nc2n(c(=O)c1CCN1CCC(c3noc4cc(F)ccc34)CC1)CCCC2 [Risperidone] has a transfection efficiency of 0.626 ± 0.041.
Work on CC[C@H](C)C(=O)O[C@H]1C[C@H](O)C=C2C=C[C@H](C)[C@H](CC[C@@H](O)C[C@@H](O)CC(=O)O)[C@H]21 [Pravastatin sodium] yielded a transfection efficiency of 1.24 ± 0.14.
Molecule CCc1nn(CCCN2CCN(c3cccc(Cl)c3)CC2)c(=O)n1CCOc1ccccc1 [Nefazodone hydrochloride] has a transfection efficiency of 1.03 ± 0.51.
With CN(C)CC[C@@H](c1ccc(Cl)cc1)c1ccccn1 [Dexchlorpheniramine maleate] the transfection efficiency was 0.703 ± 0.075.
With CC(C)(C)C(O)/C=C/c1ccc2c(c1)OCO2 (stereo unspecified) [Stiripentol] the transfection efficiency was 0.882 ± 0.14.
CC[C@@]1(O)C(=O)OCc2c1cc1n(c2=O)Cc2cc3c(CN(C)C)c(O)ccc3nc2-1 [Topotecan hydrochloride] gave a transfection efficiency of 1.03 ± 0.1.
NC(=O)c1ncn([C@@H]2O[C@H](CO)[C@@H](O)[C@H]2O)n1 [Ribavirin] showed a transfection efficiency of 1.57 ± 0.3.
Work on CN1CCC(=C2c3ccccc3CC(=O)c3sccc32)CC1 [Ketotifen fumarate] yielded a transfection efficiency of 0.867 ± 0.027.
